# Measurements from PubChem BioAssay AID588453 (National Center for Advancing Translational Sciences (NCATS), 2011).
# “And” between values parts separate entries of the source, which are not always exact repeats. Equal values may be shown once. The campaign covered roughly 390,000 compounds. About 4,000 (1%) were called active. Inconclusive means that the source gave no clear call. Such entries were picked first, then a sample of the others. The call rests on the fitted dose curve; in most records, active means well fitted inhibition curve with a large enough effect; inconclusive means small, poorly fitted or top-dose-only effect; inactive means no such curve, though single readings can be large or run the other way. A potency beside an inconclusive call is a rough fit, not a confirmed value. A structure can be active in one record and inactive in another.
# Target: Thioredoxin reductase 1, cytoplasmic (Rattus norvegicus) (UniProt O89049)
# Assay: qHTS Assay for Inhibitors of Mammalian Selenoprotein Thioredoxin Reductase 1 (TrxR1): qHTS; further: nearly all actives have a fitted effect of over 65% in size
# Conditions: recombinant rTrxR1, NADPH fluorescence consumption, selenite substrate; series mostly up to 114 µM
# Method in brief: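 Rat TrxR1 (90 nM in the dispensed reagent) was pre-reduced with 400 uM NADPH for 5 min at room temperature, then incubated with compound for 15 min. After 400 uM selenite was added, NADPH fluorescence (Ex 340/Em 450 nm) was followed for 8 min.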
# Potency means the concentration at half of the fitted maximal effect; tags describe the fitted curve by direction and shape.
# Chain of UniProt O89049 (O89049 whole entry, looked up): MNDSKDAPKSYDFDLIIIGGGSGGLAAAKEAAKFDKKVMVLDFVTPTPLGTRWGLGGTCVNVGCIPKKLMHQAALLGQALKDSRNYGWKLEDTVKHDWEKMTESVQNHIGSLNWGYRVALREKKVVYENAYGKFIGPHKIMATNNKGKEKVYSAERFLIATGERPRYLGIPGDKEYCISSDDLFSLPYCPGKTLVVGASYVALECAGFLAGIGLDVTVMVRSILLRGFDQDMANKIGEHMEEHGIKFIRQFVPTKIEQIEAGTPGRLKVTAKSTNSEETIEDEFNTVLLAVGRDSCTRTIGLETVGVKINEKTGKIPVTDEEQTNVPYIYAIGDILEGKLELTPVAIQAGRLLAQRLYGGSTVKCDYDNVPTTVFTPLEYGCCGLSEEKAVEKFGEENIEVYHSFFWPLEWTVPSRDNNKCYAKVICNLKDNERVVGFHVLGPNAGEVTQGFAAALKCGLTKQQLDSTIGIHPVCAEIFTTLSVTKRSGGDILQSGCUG
row,SMILES,Potency
1,CCC(=O)Nc1cccc(-c2nnc(SCC(=O)NCc3ccco3)n2C)c1,inactive
2,CC(C)CC(=O)Nc1ccc(S(=O)(=O)Nc2cc3c(cc2N2CCOCC2)n(C)c(=O)c(=O)n3C)cc1,inactive
3,COc1cc(NC(=O)Cn2ncc(Cl)c(Cl)c2=O)c(C)cc1[N+](=O)[O-],"inconclusive: 22.4 µM [inhibitor, single point]"
4,COC(=O)c1ccccc1NC(=O)c1nc(S(=O)(=O)Cc2cccc(C)c2)ncc1Cl,active: 1.41 µM
5,COc1ccc(CCNS(=O)(=O)CCNC(=O)c2ccccc2)cc1,"inconclusive: 70.8 µM [inhibitor, partial curve]"
6,CC(=O)C1=C(O)C(=O)N(CCCN2CCOCC2)C1c1ccccc1[N+](=O)[O-] (centres undefined),"inconclusive: 31.6 µM [inhibitor, partial curve, poor fit]"
7,Nc1c(Cl)ncnc1NCCc1ccc(O)cc1,inactive
8,O=S(=O)(/C=C/c1ccccc1)N1CCN(c2ccccc2)CC1,inactive
9,CC1CCN(CCCNC(=O)c2cn(C)c3ccc(S(=O)(=O)N(C)C4CCCCC4)cc3c2=O)CC1,inactive
10,Cc1[nH]n(-c2ccccc2)c(=O)c1N=Nc1nccs1,"inconclusive: 20 µM [inhibitor, partial curve]"
11,COC(=O)c1scc(C#N)c1N/N=C(\C#N)S(=O)(=O)c1ccc(Cl)cc1,"inconclusive: 14.1 µM [inhibitor, partial curve]"
12,CC1(C)CC(=O)C(C=NCCN2CCN(C(=O)c3ccc(Br)cc3)CC2)=C(O)C1,"inconclusive: 39.8 µM [inhibitor, partial curve]"
13,Cc1snnc1C(=O)NC(=S)Nc1ccccc1,active: 15.8 µM
14,Cn1cccc1C(=O)NC(=O)COC(=O)c1ccc(S(C)(=O)=O)c([N+](=O)[O-])c1,inactive and active: 4.47 µM
15,Cc1cc(C(=O)CCl)c(C)n1CCc1ccccc1,"inconclusive: 17.8 µM [inhibitor, partial curve]"
16,N[C@@H](Cc1ccc(O)c(O)c1)C(=O)O,"inconclusive: 29.9 µM [inhibitor, partial curve]"
17,O=C(CCc1nnc2ccc(NCc3ccco3)nn12)Nc1ccc(F)cc1,"inconclusive: 39.8 µM [inhibitor, full curve]"
18,CC(C)C[C@H](NC(=O)c1[nH]cnc1C(=O)Nc1ccc(CNC(=O)OC(C)(C)C)cc1)C(=O)OC(C)(C)C,"inconclusive: 89.1 µM [inhibitor, single point]"
19,Cc1ccc(S(=O)(=O)c2c(N)n(Cc3ccco3)c3nc4ccccc4nc23)cc1C,active: 11.2 µM
